Laboratory results published in PubChem BioAssay AID1768 (National Center for Advancing Translational Sciences (NCATS), 2009).
The campaign covered roughly 270,000 compounds. About 620 (0.23%) were called active. Inconclusive means that the source gave no clear call. Such entries were picked first, then a sample of the others. The call rests on the fitted dose curve; in most records, active means well fitted inhibition curve with a large enough effect in the polarisation, with a control signal flat (not every such curve was filed as active); inconclusive means small, poorly fitted or top-dose-only effect, or effect the other way, or a change in a side signal; inactive means no such curve, though single readings can be large or run the other way; the % refers to the polarisation. Potencies of inconclusive entries are doubtful fits and often do not repeat. “Side channel” marks fits to a control or component signal instead of the main read-out.
Potency means the concentration at half of the fitted maximal effect; tags describe the fitted curve by direction and shape or compound fluorescence and quenching.

Each compound was assayed against Menin (Homo sapiens) (UniProt O00255) (assay: qHTS Assay for Inhibitors Targeting the Menin-MLL Interaction in MLL Related Leukemias: Competition With Texas Red Labeled MLL-derived Mutant Peptide). Conditions: fluorescence polarization; series mostly up to 61.6 µM.
Sequence of UniProt O00255 (O00255 whole entry, looked up): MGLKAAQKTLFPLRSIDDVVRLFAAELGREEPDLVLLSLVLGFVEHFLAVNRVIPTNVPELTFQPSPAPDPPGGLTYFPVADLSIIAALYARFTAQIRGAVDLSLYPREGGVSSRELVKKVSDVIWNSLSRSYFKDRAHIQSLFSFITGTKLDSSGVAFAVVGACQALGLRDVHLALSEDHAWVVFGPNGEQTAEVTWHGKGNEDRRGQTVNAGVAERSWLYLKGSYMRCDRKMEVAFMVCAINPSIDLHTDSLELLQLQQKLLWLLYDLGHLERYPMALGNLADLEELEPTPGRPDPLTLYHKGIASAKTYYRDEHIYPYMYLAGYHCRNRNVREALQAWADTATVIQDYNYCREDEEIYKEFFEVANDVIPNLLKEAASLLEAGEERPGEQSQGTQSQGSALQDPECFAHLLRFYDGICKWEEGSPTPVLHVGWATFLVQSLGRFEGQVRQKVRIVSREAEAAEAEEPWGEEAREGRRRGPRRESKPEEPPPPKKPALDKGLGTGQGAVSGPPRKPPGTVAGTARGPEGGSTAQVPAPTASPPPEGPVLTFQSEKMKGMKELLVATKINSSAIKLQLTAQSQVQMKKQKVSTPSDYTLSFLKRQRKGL
For `CSc1cccc(NC(=O)Nc2ccccc2C(N)=O)c1`, the Potency was inconclusive: 20 µM [quencher, side channel, partial curve].
For `COc1ccc(NC(=O)Cn2nnc(C(=O)NCc3cccs3)c2N)cc1Cl`, the Potency was inconclusive: 39.8 µM [fluorescent, side channel, single point].
`Cc1ccc(CC(=O)N(Cc2ccccc2)c2ccccn2)cc1` was tested, and the Potency was inconclusive: 31.6 µM [fluorescent, side channel, partial curve].
In the case of `COc1ccc(F)cc1Cn1nc(C(=O)O)c2ccccc2c1=O`, the Potency is reported as inconclusive: 39.8 µM [inhibitor, single point].
For `Cc1cc(-c2nc3ccccc3c(=O)o2)ccc1[N+](=O)[O-]`, the Potency was inconclusive: 31.6 µM [quencher, side channel, single point].
`COc1ccccc1/C=N/NC(=O)c1cccc(NC(=O)c2ccccc2Cl)c1` was tested, and the Potency was inconclusive: 39.8 µM [inhibitor, single point].
For `Cc1ccc(O)c(Sc2cc(C)ccc2O)c1`, the Potency was inconclusive: 12.6 µM [quencher, side channel, partial curve].
In the case of `CCn1c(SCc2ccccc2Cl)nc2nc3c(cc2c1=O)CCCC3`, the Potency is reported as inconclusive: 3.16 µM [fluorescent, side channel, full curve, poor fit].
In the case of `NS(=O)(=O)c1ccc(N=Nc2ccc(O)c3ncccc23)cc1`, the Potency is reported as inconclusive: 7.08 µM [quencher, side channel, partial curve].
`COc1ccc2c(=O)c(OC)c(-c3ccccc3)oc2c1` was tested, and the Potency was inconclusive: 28.2 µM [inhibitor, single point].
With `O=[N+]([O-])c1ccc(NC(=S)N2CCN(c3ccc(F)cc3)CC2)cc1` the Potency was inconclusive: 22.4 µM [quencher, side channel, partial curve].
In the case of `O=C1[C@H]2[C@@H](c3ccc(Cl)cc3)N3C(=O)N(c4cccc(Br)c4)C(=O)[C@@]3(Cc3ccc(Cl)cc3)[C@H]2C(=O)N1C1CCCCC1`, the Potency is reported as inconclusive: 6.31 µM [inhibitor, full curve].
In the case of `CC1(C)CCCN(C(=O)N2c3ccccc3Sc3ccccc32)C1`, the Potency is reported as inconclusive: 17.8 µM [fluorescent, side channel, single point].
For `COc1cccc(CNC(=O)Nc2cccs2)c1`, the Potency was inconclusive: 28.2 µM [quencher, side channel, single point].
In the case of `CCCn1c(CCC(=O)Nc2ccccc2Cc2ccccc2)nc2cc(S(=O)(=O)N3CCOCC3)ccc21`, the Potency is reported as inconclusive: 17.8 µM [fluorescent, side channel, single point].
`CCOc1ccc2c(c1)C(C)=CC(C)(C)N2C(=O)Nc1ccccc1F` was tested, and the Potency was “inactive”.
`Cc1nnc(C)c2c(C)n(C(c3ccccc3)c3ccccc3)c(C)c12` was tested, and the Potency was inconclusive: 7.08 µM [fluorescent, side channel, partial curve].
For `O=[N+]([O-])c1ccccc1/C=N\Nc1nccs1`, the Potency was “inactive”.
For `CCCCCCCCCCCCC/C=C/[C@@H](O)[C@H](CO)NC(=O)CCCCCCC`, the Potency was inconclusive: 0.631 µM [inhibitor, full curve, poor fit].
In the case of `Cn1ccsc1=NC(=O)c1ccc(Cl)c([N+](=O)[O-])c1`, the Potency is reported as inconclusive: 20 µM [quencher, side channel, single point].
In the case of `COc1cc(/C=C2/C(=N)N3N=C(C)SC3=NC2=O)ccc1OS(=O)(=O)c1ccc(C)cc1`, the Potency is reported as inconclusive: 17.8 µM [quencher, side channel, single point].
For `O=S(=O)(NCc1ccc(Cl)cc1)NCc1ccc(Cl)cc1`, the Potency was inconclusive: 31.6 µM [inhibitor, partial curve].
With `O=C(CCN1C(=O)/C(=C/c2ccccc2Cl)SC1=S)NCCc1ccc(O)cc1` the Potency was inconclusive: 39.8 µM [inhibitor, single point].
`CC1CCN(C(=S)NC(=O)c2ccccc2)CC1` was tested, and the Potency was “inactive”.
`N#Cc1cc(Sc2ccccn2)c(Sc2ccccn2)cc1C#N` was tested, and the Potency was inconclusive: 25.1 µM [inhibitor, single point].
For `O=C(O)c1cc(-c2ccc(Cl)cc2)n(-c2ccc(F)cc2)n1`, the Potency was inconclusive: 2.82 µM [inhibitor, full curve].
For `CCCCN(CC)S(=O)(=O)c1ccc(C(=O)N=c2sc3cc(NC(C)=O)ccc3n2C)cc1`, the Potency was inconclusive: 17.8 µM [fluorescent, side channel, single point].
For `COC(=O)c1cccc(NC(=O)Cc2nc(-c3ccccc3)sc2-c2ccc(C)cc2)c1`, the Potency was “inactive”.
In the case of `O=C(N/N=C/c1cnc(N2CCCCC2)s1)c1ccc(C(F)(F)F)cc1`, the Potency is reported as inconclusive: 25.1 µM [quencher, side channel, single point].
`O=C(Cc1cccs1)Nc1nnc(SCc2cccc3ccccc23)s1` was tested, and the Potency was inconclusive: 10 µM [quencher, side channel, partial curve].
For `O=C(C1=C[C@@H](c2coc3ccccc3c2=O)C[C@@H](OCCCCO)O1)N1CCN(Cc2ccccc2)CC1`, the Potency was inconclusive: 5.62 µM [fluorescent, side channel, partial curve].
With `CC(C)N(C(=O)N1CCN(c2ccnc3cc(Cl)ccc23)CC1)C(C)C` the Potency was inconclusive: 2.82 µM [fluorescent, side channel, partial curve].
With `Cc1cccc(C)c1N=Nc1c(C)cc(O)cc1C` the Potency was inconclusive: 14.1 µM [quencher, side channel, partial curve].
For `CC1CC(OCC(O)CN2CCCCC2C)CC(C)(C)C1` (configuration not stated), the Potency was inconclusive: 5.62 µM [inhibitor, full curve, poor fit].
With `O=C(N/N=C/c1cn(CCOc2ccccc2)c2ccccc12)c1ccncc1` the Potency was inconclusive: 20 µM [quencher, side channel, partial curve].
With `Cc1nc(Nc2cccc(Cl)c2)c2oc3ccccc3c2n1` the Potency was inconclusive: 6.31 µM [quencher, side channel, partial curve].
With `COc1ccc(-n2cc(-c3ccc(Br)cc3)[nH]c2=S)cc1` the Potency was inconclusive: 39.8 µM [fluorescent, side channel, single point].
